Out of some 410,000 compounds screened, about 530 (0.13%) were called active. This list was built around the results that the source calls inconclusive (neither active nor inactive); the mix of calls is not that of the screen. Calls follow the shape of the dose curve; as a rule, active = well fitted inhibition curve with a large enough effect; inconclusive = small, poorly fitted or top-dose-only effect, or another doubt; inactive = no such curve, though single readings can be large or run the other way. Potencies beside an inconclusive call are fits to weak or partial responses and may not hold up.
Experiment: qHTS of GLP-1 Receptor Inverse Agonists: Cytotox Screen
Settings: HEK293 cAMP-luciferase reporter cells, luminescence, 24 h; series mostly up to 38.3 µM
How it was run: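 Seeding density was 200 cells/uL; after overnight-length (12 h) culture, 23 nL compounds went on for 24 h at 37 °C. Readout used a luciferase detection reagent, luminescence taken after 12 min at room temperature.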
Potency is read from the fitted curve at half-maximal effect.

| Structure (SMILES) | Potency |
| --- | --- |
| CCc1ccc2[nH]c(=O)c(CN(CCN(CC)CC)C(=O)NC3CCCCC3)cc2c1 | inconclusive: 14.1 µM [inhibitor, partial curve, poor fit] |
| CC(C)CCNC(=O)C1CCN(Cc2cccc(OCc3ccccc3)c2)CC1 | inconclusive: 10 µM [inhibitor, single point] |
| CCC(Sc1nc2n[nH]c(C)c2c(=N)n1-c1ccc(C)c(Cl)c1)C(=O)N1CCOCC1 (centres undefined) | inconclusive: 3.98 µM [inhibitor, partial curve] |
| Cc1ccccc1C(=O)NNC(=S)Nc1cccc(C(F)(F)F)c1 | inactive |
| CSc1nnc2[nH]c(=O)cc(C)n12 | inactive |
| COc1ccccc1Sc1nc(-c2ccccn2)ncc1OC | inconclusive: 4.47 µM [inhibitor, partial curve] |
| O=C(N/N=C1\CCc2ccccc21)c1ccccc1Cl | inactive |
| CCOC(=O)N1C(=O)[C@@](c2ccc(Cl)cc2)(C(C)C)N1C(=O)OCC | inconclusive: 11.2 µM [inhibitor, partial curve] |
| Cc1ccc(C)c(OCC(=O)Nc2ccc3c(c2)OCO3)c1C | inconclusive: 12.6 µM [inhibitor, single point] |
| COc1ccc(NC(=O)C/C(C)=N/NC(=O)c2cccs2)c([N+](=O)[O-])c1 | inconclusive: 2 µM [inhibitor, full curve, poor fit] |
| CCc1ccc(Oc2cc(C)nc(N)n2)cc1 | inactive |
| Nc1ccccc1SC(CC(=O)c1ccccc1)c1ccc([N+](=O)[O-])cc1 (centres undefined) | inconclusive: 5.62 µM [inhibitor, single point] |
| Cc1cc(C[n+]2ncsc2N)c2ncccc2c1 | inactive |
| Cc1cc2ccccn2c1C(=S)NC(=O)c1ccccc1 | inconclusive: 31.6 µM [inhibitor, single point] |
| CCN1CCN(c2cc3nc(C)n(Cc4ccccc4)c(=O)c3cc2NC(=O)c2ccccc2F)CC1 | inconclusive: 28.2 µM [inhibitor, single point] |
| Cc1ccc(N=C2NC(=O)/C(=C\c3ccsc3)S2)c(C)c1 | inconclusive: 11.2 µM [inhibitor, single point] |
| O=C(Nc1ccc(Cl)c(-c2nc3ccccc3[nH]2)c1)c1ccc2c(c1)OCO2 | inconclusive: 10 µM [inhibitor, partial curve, poor fit] |
| O=C(O)CC1NC(=S)N(Cc2ccccc2)C1=O (centres undefined) | inconclusive: 20 µM [inhibitor, single point] |
| CN(C)c1cc2c(c(N(C)C)c1)C(=O)c1ccccc1C2=O | inconclusive: 11.2 µM [inhibitor, partial curve, poor fit] |

Source: PubChem BioAssay AID624418 (National Center for Advancing Translational Sciences (NCATS), 2012)
